About 5,300 (4.4%) of roughly 120,000 compounds were called active. The inconclusive results got no clear call from the source; some entries with a clear call stand among them for comparison. The call rests on the fitted dose curve; in most records, active means well fitted inhibition curve with a large enough effect; inconclusive means small, poorly fitted or top-dose-only effect; inactive means no such curve, though single readings can be large or run the other way. A potency beside an inconclusive call is a rough fit, not a confirmed value.
Assay: qHTS Primary assay for Inhibitors of Plasmodium falciparum Dd2 growth in vitro; further: nearly all actives have a fitted effect of over 65% in size;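 on activity, negative = inhibition: plate controls were DMSO vehicle for no effect and reference drug for full effect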
Conditions: P. falciparum Dd2 growth, SYBR Green, 72 h; activity, negative = inhibition: at 28.9 µM (top of the series) unless noted; series mostly up to 28.9 µM
How it was run: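 Infected erythrocytes (Dd2, 0.3% parasitemia, 2.5% hematocrit final) are added to compound in RPMI-1640/Albumax II medium, grown 72 h at 37C in low oxygen, then lysed with saponin/Triton-X containing SYBR Green and read by fluorescence.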
Potency means the concentration at half of the fitted maximal effect; tags describe the fitted curve by direction and shape.

Structure (SMILES)	activity, negative = inhibition	Potency	outcome
Cc1cc(CNC(=O)[C@@H]2CCC[C@@H](NC(=O)C3CCCC3)CN(C)C(=O)C2)no1	inactive: -14% [at 44.1 µM]	–	–
Cc1cc(-c2cn(C)c(=O)n3cc(COc4ccccc4)nc23)ccn1	–	inconclusive: 10 µM [inhibitor, partial curve, poor fit]	–
CS(=O)(=O)N1CC2(CCN(C3CCCCC3)CC2)Cc2ccccc21	–	inconclusive: 4.47 µM [inhibitor, partial curve]	–
CCOC(=O)c1ccccc1NC(=O)Cn1c(=O)n(CCC(=O)NCc2ccccc2OC)c(=O)c2ccccc21	–	inconclusive: 8.91 µM [inhibitor, single point]	–
COc1ccc(N2CCN(C3CCCN(CC(N)=O)C3)CC2)cc1 (stereo unspecified)	inactive: -13.1%	–	–
COCc1cc(=O)n(CC(=O)Nc2cccc(Cl)c2C)c(N2CCOCC2)n1	–	–	inactive
Cc1sc2ncn(CC(=O)Nc3ccc(F)cc3Cl)c(=O)c2c1S(=O)(=O)N1CCN(c2ncccn2)CC1	–	inconclusive: 17.8 µM [inhibitor, single point]	–
O=C(Nc1ccc(Br)cc1F)c1cc(S(=O)(=O)NC2CCCC2)ccc1F	–	inconclusive: 0.0224 µM [inhibitor, full curve]	–
COc1ccc(NC(=O)c2ccc3c(SCC(=O)O)c4c(nc3c2)CCCC4)cc1OC	–	inconclusive: 17.8 µM [inhibitor, single point]	–
CC1=C[C@@H](CNC(=O)CC(C)(C)CC(=O)O)[C@H](C(C)C)C[C@H]1Cc1nc2ccccc2[nH]1	inactive: -18.6%	–	–
O=C(Cc1ccccc1)N(Cc1cccnc1)c1nc2ccc(Cl)cc2s1	–	inconclusive: 10 µM [inhibitor, single point]	–
COc1cccc(CN2Cc3cc(NC(=O)c4ccc([N+](=O)[O-])cc4)ccc3OC(C)C2=O)c1OC (stereo unspecified)	–	inconclusive: 1.78 µM [inhibitor, partial curve, poor fit]	–
O=C(NC1C[C@H]2CC[C@@H](C1)N2C(=O)CC1CCCC1)c1ccc(F)cc1 (stereo partly specified)	inactive: -19.3%	–	–
Cc1cccc(C)c1-c1nc(C(=O)NCc2ccc(F)cc2)n2ccccc12	–	inconclusive: 0.447 µM [inhibitor, full curve]	–
COc1ccc(-c2nc3scc(CCNS(=O)(=O)c4c(C)noc4C)n3n2)cc1OC	–	inconclusive: 17.8 µM [inhibitor, single point]	–
CCCCN(Cc1cccs1)S(=O)(=O)c1cc(-c2cc(C)no2)ccc1C	–	inconclusive: 10 µM [inhibitor, single point]	–
Cc1cc(Cl)ccc1S(=O)(=O)NC1CCc2nn(C)c(=O)n2CC1 (stereo unspecified)	inactive: 41%	–	–
COc1ccc(OC2CN(S(=O)(=O)c3c(C)noc3C)C2)cc1	inactive: 10.1%	–	–
CCn1c(CN2CCN(CC(=O)N3CCCC3)CC2)nnc1C1CC(N)C1 (stereo unspecified)	inactive: -1.89%	–	–
O=C(COc1ccc(F)cc1)N1CCCN(C(=O)C2CC2)c2ccccc21	inactive: -21.2%	–	–
Cc1ccc(C(=O)N2CCN(C3CCN(C)C3=O)CC2)cc1C (stereo unspecified)	–	inconclusive: 20 µM [inhibitor, single point]	–
CN(c1ccccc1)c1cc(=O)c2ccnc(-c3ccccc3O)c2o1	–	inconclusive: 1.58 µM [inhibitor, full curve, poor fit]	–

Structure (SMILES)	activity, negative = inhibition	Potency	outcome
Cc1cccc2nc(-c3ccc(N(C)C)cc3)c(Nc3ccc4c(c3)OCO4)n12	–	active: 7.94 µM	–
COc1ccc([C@@H]2CN(C(=O)CCc3ccsc3)C[C@H]2N(C)C)cc1	–	inconclusive: 1 µM [inhibitor, partial curve, poor fit]	–
CCc1nc2c(c(-c3ccc(OC)cc3)n1)CN(C(=O)c1ccccc1)CC2	inconclusive: -50.2% [inhibitor]	–	–
CCCN(C(=O)C(=O)Nc1ccc2nc3n(c(=O)c2c1)CCCCC3)c1ccc(OCC)cc1	inactive: -16.3%	–	–
COc1ccc(CN2C(=O)COC[C@H]2C(=O)Nc2ccc(C(C)C)cc2)c(OC)c1	–	inconclusive: 20 µM [inhibitor, single point]	–
CN(Cc1cccn1C)C1CCOc2ccccc21 (stereo unspecified)	inactive: -0.377% [at 44.1 µM]	–	–
CC(C)c1ccc(-c2noc(SCC(=O)N3CCN(c4ccc(F)cc4)CC3)n2)cc1	–	active: 0.447 µM	–
O=C(CCc1ccccc1)N(Cc1cccnc1)c1nc2c(F)cc(F)cc2s1	–	active: 10 µM	–
Cc1ccc(C)c(Nc2nn3c(=O)c4ccc(C(=O)NCCC5=CCCCC5)cc4nc3s2)c1	–	active: 10 µM	–
O=C(c1n[nH]c2c1CCCC2)N1CCC(n2cc(-c3nc(-c4ccccc4)no3)nn2)CC1	–	inconclusive: 0.891 µM [inhibitor, partial curve]	–
Cc1cccc(C(=O)N2CCC3(CC2)CC(CC(=O)N2CCOCC2)CCO3)c1 (stereo unspecified)	inactive: -21.1%	–	–
COc1ccc(C(=O)Nc2ccc(-c3noc([C@@H]4CCCN4Cc4ccc(S(C)(=O)=O)cc4)n3)cn2)cc1	–	–	inactive
Cn1cccc1C(=O)N1CC(Oc2cccc(-c3nc(-c4ccccc4)no3)c2)C1	–	–	inactive [at 5.79 µM]
CN(C)c1ccc(CNC(=O)c2cnc3sc(N4CCCC4)nn3c2=O)cc1	–	inconclusive: 0.01 µM [inhibitor, partial curve, poor fit]	–
COc1ccc(-c2cc(C(=O)NCC(C)C)c3c(C4CCNC4)nn(C)c3n2)cc1 (stereo unspecified)	–	inconclusive: 10 µM [inhibitor, single point]	–
COc1cc(C2CC(=O)c3c([nH]c(C(=O)OCc4ccc(C)cc4)c3C)C2)cc(OC)c1OC (stereo unspecified)	–	inconclusive: 3.55 µM [inhibitor, partial curve]	–
OCC1(CN2CCCC2)CCN(Cc2ccccc2F)CC1	–	inconclusive: 8.91 µM [inhibitor, single point]	–
CCOC(=O)c1ccccc1NC(=O)Cn1c(=O)n(CCC(=O)N2CCc3ccccc3C2)c(=O)c2ccccc21	–	inconclusive: 12.6 µM [inhibitor, single point]	–
Cc1cccc(C(c2sc3nc(-c4ccco4)nn3c2O)N2CCN(Cc3ccccc3)CC2)c1 (stereo unspecified)	–	inconclusive: 20 µM [inhibitor, single point]	–
COc1ccccc1-c1nnc(C2CCN(C(=O)c3cccc(Cl)c3)CC2)o1	–	inconclusive: 17.8 µM [inhibitor, partial curve, poor fit]	–
O=C(c1ccc2nccn2c1)N1CCN(c2ncccn2)CC1	–	inactive	–
CC(C)c1cc(C(=O)N[C@@H]2COCC[C@@H]2Oc2cccc(F)c2)nc(N)n1	–	inconclusive: 8.91 µM [inhibitor, partial curve, poor fit]	–

Structure (SMILES)	activity, negative = inhibition	Potency	outcome
CC(C)C[C@@H]1N[C@H](C(=O)NCC2CC2)Cc2cn(Cc3cccnc3)c3cccc1c23	inactive: -37.7% [at 44.1 µM]	–	–
Cc1nc(C)c(C)c(N2CCCC(c3nccn3Cc3ccccc3)C2)n1 (stereo unspecified)	–	inconclusive: 6.31 µM [inhibitor, partial curve]	–
CC(=O)c1cc(-c2ccccc2)n(CCC(=O)Nc2ccc(C(C)C)cc2)c1C	–	inconclusive: 17.8 µM [inhibitor, single point]	–
Cc1ccc(-n2ncc(C(=O)N3CCN(Cc4ccccc4)CC3)c2C2CCN(C(=O)OC(C)(C)C)CC2)cc1	–	inconclusive: 5.01 µM [inhibitor, partial curve, poor fit]	–
COc1ccc2nc3n(c2c1)[C@@H](CNCc1ccccc1)COC3	–	active: 7.08 µM	–
O=C1NCc2ccccc2CC12CCCCN2Cc1ccc(Cl)s1 (stereo unspecified)	–	inconclusive: 0.501 µM [inhibitor, full curve, poor fit]	–
CCOc1ccc(NC(=O)Cn2cc(C(=O)c3ccc(F)cc3)c(=O)c3cc4c(cc32)OCCO4)cc1	inactive: 9.5%	–	–
O=C(c1ccccc1)N1CCC(c2nn(-c3ccccc3)c(=O)[nH]2)CC1	inactive: 23.3%	–	–
COc1ccccc1OCCn1c(C(C)Oc2ccccc2)nc2ccccc21 (stereo unspecified)	–	inconclusive: 20 µM [inhibitor, single point]	–
CC(C)c1ccc(NC(c2nnc(-c3ccccc3)o2)c2ccc(F)cc2Cl)cc1 (stereo unspecified)	–	inconclusive: 7.94 µM [inhibitor, partial curve, poor fit]	–
CC(C)Oc1ccc2c(NC(=O)c3ccon3)nn(Cc3ccccc3)c2c1	–	inconclusive: 11.2 µM [inhibitor, partial curve, poor fit]	–
COc1ccc(-c2cc3c(nc2OC)nc(CC2CC2)n3C)cc1OC	–	inconclusive: 2.82 µM [inhibitor, full curve, poor fit]	–
Cc1ccc(NC(=O)N2CCCC(Cn3cnc4cccnc43)C2)cc1Cl (stereo unspecified)	–	–	inactive
Cc1cc(C)cc(C(=O)Nc2c(C(=O)Nc3ccccc3F)oc3ccccc23)c1	–	inconclusive: 8.91 µM [inhibitor, partial curve, poor fit]	–
COc1cc(C(=O)NC2CCN(c3cc(-c4cccs4)[nH]n3)CC2)cc(OC)c1OC	–	inconclusive: 1.58 µM [inhibitor, partial curve, poor fit]	–
COc1ccc(C(=O)N2CCCN(c3nnc4ccc(Cl)cn34)CC2)cn1	–	inconclusive: 8.91 µM [inhibitor, single point]	–
Cc1nc(CN2Cc3nc(-c4ccc5c(c4)OCO5)ccc3OCC2=O)cs1	–	inconclusive: 20 µM [inhibitor, single point]	–
COCCCn1c(C)cc(C(=O)N2CC(COC)C3(CCNCC3)C2)c1C (stereo unspecified)	inactive: 34.2%	–	–
COC[C@@H]1CN(Cc2ccc(OC)cc2OC)C[C@H]1C(=O)NC1CC1	inactive: -28.3%	–	–
Cc1ccc(CC(=O)Nc2cccc(-c3nnc4n3CCCC4)c2)cc1	–	inconclusive: 7.94 µM [inhibitor, partial curve, poor fit]	–
Cc1ccccc1CN1C(=O)C(O)(CC(=O)c2ccccc2)c2cc(Cl)ccc21 (stereo unspecified)	–	inconclusive: 10 µM [inhibitor, single point]	–
COCCN1CCNc2cc(NCc3ccccc3)ncc2C1	–	inconclusive: 8.91 µM [inhibitor, partial curve, poor fit]	–

From PubChem BioAssay AID1347417 (National Center for Advancing Translational Sciences (NCATS), 2020)
